Some of the results follow.

Drawing on article PMC12136788, this text covers binding signal for 14 molecules.

T1: UNK ZnF1-6 (called full-length) (human, UniProt Q9C0B0 30-357)
T1 sequence: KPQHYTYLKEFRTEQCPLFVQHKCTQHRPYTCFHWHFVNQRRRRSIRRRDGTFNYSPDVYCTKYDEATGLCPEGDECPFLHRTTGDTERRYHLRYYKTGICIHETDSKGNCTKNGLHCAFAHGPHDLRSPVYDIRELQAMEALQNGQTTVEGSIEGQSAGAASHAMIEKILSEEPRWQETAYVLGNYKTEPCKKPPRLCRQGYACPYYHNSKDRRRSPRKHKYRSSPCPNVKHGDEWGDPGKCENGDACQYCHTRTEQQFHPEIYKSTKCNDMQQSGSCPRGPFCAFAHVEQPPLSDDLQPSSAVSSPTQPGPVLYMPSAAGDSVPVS

B1: chr2:182778012:182778113:+|3pUTR|ENSG00000077232|msi1|FALSE|unique (ssRNA)
RNA: GGGAGUUCUACAGUCCGACGAUCUAAAGAUAUAUGUGUUCAUGUAUUUUCUGAAAUUGCUUUCAUAGAAAUUUUCCCACUGAUAGUUGAUUUUUGAGGCAUCUAAUAUUUACAUAUUUGCCUUCUGAACUUUGUUUUGACCUGCAACAGAGGAUUGAGCAUCA
B2: ENSG00000124766:be:win_3101|3pUTR|ENSG00000124766|bound_else_gene|NA|bound_elsewhere_windowed (ssRNA)
RNA: GGGAGUUCUACAGUCCGACGAUCACACUUUUAAAAAACAAAAAAAGACAAGAGAGAUGAAAACGUUUGAUUAUUUUCUCAGUGUAUUUUUGUAAAAAAUAUAUAAAGGGGGUGUUAAUCGGUGUAAAUCGCUGUUUGGAUUUCCAACAGAGGAUUGAGCAUCA
B3: chr11:11963431:11963477:-|3pUTR|ENSG00000050165|msi1_unk|total|mutant (ssRNA)
RNA: GGGAGUUCUACAGUCCGACGAUCUUGACACUGUCCCUCUUUGGCAGUUGCAUCCGUAACUUUGAAAGGUAUAUGACUGAGCGCCGCAUACAGGUUAACCUGCAGAAACAGUACUCCGGUAAUUGCCGGGCGAGGAUUAUAAAUCAACAGAGGAUUGAGCAUCA
B4: chr19:6729913:6730384:-|three_prime_utr|ENSG00000125734|control|control|control (ssRNA)
RNA: GGGAGUUCUACAGUCCGACGAUCUACGCCGUUGUCUUGCCUUUUUGGGGGUUGGGGUCUACACGGAGGUUGUGUUUACAAUGUAGAAACCUGUUUUCGCUGUGUGUGGCGGGGGCGCGGGCACAGGGUCCGUGUCUUUGUAUACAACAGAGGAUUGAGCAUCA
B5: chrX:135759845:135760351:-|three_prime_utr|ENSG00000269096|control|control|control (ssRNA)
RNA: GGGAGUUCUACAGUCCGACGAUCGUUUUCUACAAUGGAGCAGGAUAUUGCUGAAGUCUCCUGGCAUAUGUUACCGAAUCAAAUAGCCUUCCAGAGGCUAAGAAAUUUCUGUUAGUAAAAGAUGUUCUUUUUCCCAAAGCAUUUCAACAGAGGAUUGAGCAUCA
B6: chr7:16784014:16784129:+|3pUTR|ENSG00000106537|msi1_unk|total|mutant (ssRNA)
RNA: GGGAGUUCUACAGUCCGACGAUCGAUAAUUUACUUGCCGUCUUUUAUGAUUACACCAAUGUAUUCCCGAAACCGUUAUGUCUCCGGAAAUUGUGGUUUAAUUUUUGACUUUUACAGGUAAGUGCAAAGGAGAAGUGGUUUCAUCAACAGAGGAUUGAGCAUCA
B7: chr8:6757792:6757893:+|3pUTR|ENSG00000155189|msi1|total|mutant (ssRNA)
RNA: GGGAGUUCUACAGUCCGACGAUCAUUUAUUACAACUUGACAGCUCCAAGCUCUUAUUACUAAAGUAUUCCGUAUCUUGCAGCCCGUUAAUAUUUCAUCUUUUGCUUAUUUCUACAAGUCAGUGAAAUAAAUUGUAUUCCGGAACAACAGAGGAUUGAGCAUCA
B8: chr19:12699869:12699961:-|3pUTR|ENSG00000105576|msi1_unk|total|mutant (ssRNA)
RNA: GGGAGUUCUACAGUCCGACGAUCGAGGGUGGGGGUGCCGUUACUUCCCAGUUGGCCAGAAAACUGGGCCUUGCAGACCCCCUCCGCAUUUUUUCCCUUUUUUUCCUUCCCUGCUUUCUACUUCUUUGGGGAGCCCCUUGUGUUCAACAGAGGAUUGAGCAUCA
B9: chr3:14145182:14145283:-|3pUTR|ENSG00000154767|unk|total|mutant (ssRNA)
RNA: GGGAGUUCUACAGUCCGACGAUCUGAAAAUUAAGGAAAUGUCCGUAAAACCGAUGAGUGUUAAACCCGAUUGUAUUCAUUACCCGAUAAAAUGUAUAAAGCUCUCUGUACUAAGGAGAAAUGACUUUUAUAACAUUUUGAGAACAACAGAGGAUUGAGCAUCA
B10: chr6:36925625:36925726:+|3pUTR|ENSG00000198663|msi1|FALSE|unique (ssRNA)
RNA: GGGAGUUCUACAGUCCGACGAUCACUUCUCAAGUUAAUUUUGAUAAGCAGAAUCUACUACUGGCCAGAGCGACAGGAGUGGCUAGGGGUUGCCAGCCAGUCCCUUUCUGAUGAUCAAGGCCCUGCACAGCAGGAUGCCACAGGCAACAGAGGAUUGAGCAUCA
B11: chr1:246907611:246907713:-|CDS|ENSG00000153207|unk|total|mutant (ssRNA)
RNA: GGGAGUUCUACAGUCCGACGAUCUGAAGUACCACACAUCCGAGAAAGUGUAAUGAGACAAGGGCGCCAUCUGUGUUUCCAGUCCGUAAGUCCAACAGGAACAGCUGUUUCAACUCUCCGUUACAUAAGCAGGACAAAUCAGCUCAACAGAGGAUUGAGCAUCA
B12: ENSG00000119689:stop:overlap|stop_codon|ENSG00000119689|stop_codon|NA|stop_codon (ssRNA)
RNA: GGGAGUUCUACAGUCCGACGAUCCUUUCCUCCGCAAAAUCAAGGCAGCGGUAGAGGAUCCCAGAGUCCUCCUCCUGGAUCUUUAGGAGGAACCCACACACCCUACAAGUUGAUCAUGCAGGAACUGAAAACCAGUCUUCUCCCCAACAGAGGAUUGAGCAUCA
B13: chr12:64128047:64128160:+|CDS|ENSG00000196935|unk|FALSE|unique (ssRNA)
RNA: GGGAGUUCUACAGUCCGACGAUCGGCAGCCUGACCAACAUCAGCCGGCACGACUCCCUCAAGAAGAUCGACAGCCCUCCCAUUAGAAGGUCCACGUCAUCAGGGCAAUACACGGGCUUCAAUGACCACAAGCCACUGGACCCACAACAGAGGAUUGAGCAUCA
B14: chr9:101390727:101390839:-|CDS|ENSG00000136897|unk|FALSE|unique (ssRNA)
RNA: GGGAGUUCUACAGUCCGACGAUCCAGAAAAGAGAAAGAGCCAGUGGUUGUUGAGACAGUAGAAGAGAAAAAGGAACCUAUCCUAGUGUGUCCACCUUUACGAAGCCGAGCAUACACACCACCUGAAGAUCUCCAGAGUCGUUUCAACAGAGGAUUGAGCAUCA

This test concerns the target T1, UNK ZnF1-6 (called full-length). Briefly: nsRBNS (natural sequence RNA bind-n-seq); RBNS binding buffer (assumed for nsRBNS): 25 mM Tris pH 7.5, 150 mM KCl, 3 mM MgCl2, 0.01% Triton X-100, 500 ug/ml BSA, 20 U/ml SUPERase-In, 4 C; UNK is unkempt and MSI1 is Musashi-1; names of the RNAs are library labels; protein concentration not given here; high values mean tight binding.
B1 showed a binding signal of 1.31 enrichment R. In turn, B2 displayed a binding signal of 0.526 enrichment R. B3: the binding signal turned out to be 0.534 enrichment R. On to B4, for which the binding signal was found to be 0.957 enrichment R. In the case of B5, the binding signal is 0.596 enrichment R.

In turn, B6 had a binding signal of 0.435 enrichment R. For B7 the value was 0.493 enrichment R; for B8, 0.932 enrichment R; for B9, 0.315 enrichment R. The molecule B10 had a binding signal of 0.709 enrichment R. As for B11, the binding signal stood at 0.565 enrichment R. For B12, the binding signal worked out at 0.648 enrichment R. Turning to B13, the binding signal worked out at 1.28 enrichment R. Molecule B14 had a binding signal of 0.633 enrichment R.
